This is an account of results in ChEMBL document CHEMBL4888484, “Replenishing the malaria drug discovery pipeline: Screening and hit evaluation of the MMV Hit Generation Library 1 (HGL1) against asexual blood stage Plasmodium falciparum ,using a nano luciferase reporter read-out” (2022).

Hit rate of the full screen: of about 150,000 compounds, about 540 (0.36%) showed an effect of 50% or more. Some of the results follow.

The test system of this assay is Plasmodium falciparum. The assay can be described thus: Primary screen in NF54 nanoGlo assay, in single point, at 2uM, 72h; a lower Z score goes with more inhibition. It is filed as functional, Erythrocyte. To be noted: timepoint 72 hour.
`CC[C@H]1CCC[C@@H](C)N1C(=O)c1occc1C(C)C`: the % Inhibition (usually the change of the read-out against control, counted positive when it falls) is -4% and the Z score turned out to be 0.59.

Turning to `COc1ccc(CCN(Cc2ccco2)C(=O)CN(C(=O)c2ccccc2OC)C(C)C)cc1OC`, the “% Inhibition” value is 8% and the Z score was -1.04.

Turning to `CC(C)CC1(CNC(=O)c2ccncc2O)CCC1`, the “% Inhibition” value is 3% and the Z score is recorded as -0.35.

For `COc1cc(-c2nc(CN3CCC[C@](C)(O)C3)c(C)o2)cc2c1OCO2`, the “% Inhibition” value was 7% and the Z score is on record as -0.94.

As for `CC(C)C1CCC(C(=O)N[C@@H](Cc2ccccc2)C(=O)Nc2cnn(C)c2)CC1` (some centres undefined), the “% Inhibition” value worked out at 1% and the Z score is given as -0.19.

`Cn1ccnc1CC[C@H]1CCCCN1C(=O)c1ccc2ncsc2c1`: the “% Inhibition” value is recorded as -12% and the Z score came to 2.2.

In the case of `Cc1n[nH]c(C(=O)N[C@H]2C[C@H](c3cc(=O)[nH]cn3)C2)c1Cl`, the “% Inhibition” value is -14% and the Z score was 2.86.

Take `CO[C@H]1COC[C@@H]1Nc1ncnc(Oc2cccnc2C)c1C`: the “% Inhibition” value was -4% and the Z score is 0.82.

For `Cc1ccc2c(c1)Oc1cc(Oc3ccc(Cl)cc3)c(S(=O)(=O)N3CCCCC3)cc1C(=O)N2`, the “% Inhibition” value is given as -4% and the Z score turned out to be 0.54.

`O=C([C@H]1C2CCC(CC2)[C@@H]1C(F)(F)F)N1CCn2c(n[nH]c2=O)C1`: the “% Inhibition” value was determined as 0% and the Z score came out at 0.02.

Consider `COc1ccc(-c2ccno2)cc1S(=O)(=O)N1C[C@H]2CC=CC[C@H]2C1`, for which the “% Inhibition” value is listed as -7% and the Z score came out at 1.48.

Take `C[C@@H](c1ccccc1)n1ccc(NC(=O)c2[nH]nc3c2CCCC3)n1`: the “% Inhibition” value is reported as -6% and the Z score turned out to be 1.01.

In the case of `c1ccc2cc(-c3ccc4ccccc4n3)ccc2c1`, the “% Inhibition” value is reported as 41% and the Z score is listed as -1.59.

Turning to `CCCOc1ccc([C@H]2OCCn3c(-c4ccccc4)c4c(=O)n(C)c(=O)n(C)c4c32)cc1`, the “% Inhibition” value stood at 5% and the Z score is -0.89.

`CCOC(=O)C1CCCN(C2CCN(C3CCC(=O)N(Cc4ccc(Cl)cc4)CC3)CC2)C1` (centres undefined): the “% Inhibition” value is recorded as -7% and the Z score was found to be 0.87.

On to `CCC[C@H](O)C(=O)N1CCC2(CCN(C)C2=O)CC1`, for which the “% Inhibition” value is on record as -2% and the Z score is 0.37.

Regarding `CC(C)COc1ncccc1C(=O)NCc1cccc(-c2nc(-c3ccncc3)no2)c1`, the “% Inhibition” value is reported as 1% and the Z score is given as -0.18.

As to `CC(C)N1CCN(C(=O)Nc2nnc(C3CC3)s2)CC1`, the “% Inhibition” value is listed as -11% and the Z score is reported as 1.44.

With `O=C(Nc1ccn(CCc2ccncc2)n1)C1CC1c1ccccc1` (centres undefined), the “% Inhibition” value was determined as 0% and the Z score is given as 0.05.

As to `CCn1nnc2cc(C(=O)N3CCN(S(=O)(=O)c4ccc(C)cc4)CC3)ccc21`, the “% Inhibition” value is given as -5% and the Z score came to 0.51.

Turning to `N#CCCN(C(=O)c1cc(S(=O)(=O)N2CCCCC2)ccc1Cl)c1ccccc1`, the “% Inhibition” value is reported as -4% and the Z score is reported as 0.62.

For `Cc1cccc([C@H](C)NC(=O)c2oc(C)nc2C)n1`, the “% Inhibition” value is -14% and the Z score is listed as 2.59.

With `CCn1c(C2CCC2)nnc1N1C[C@H](C)OC2(CCC2)C1`, the “% Inhibition” value was found to be 6% and the Z score was -0.8.

`CNC(=O)C1CCCC1Nc1nc(C)c2ccccc2n1` (centres undefined): the “% Inhibition” value turned out to be 21% and the Z score is reported as -2.69.

Regarding `CC1(C)CCc2nnc([C@@H]3Cc4ccccc4O3)n2C1`, the “% Inhibition” value is -6% and the Z score came to 0.86.

Turning to `O=C(CCc1ccc(Br)cc1)NC1CCCC1C(=O)O` (centres undefined), the “% Inhibition” value is -8% and the Z score was 1.15.

With `CC(C)C(NC(=O)NCCC1CCCO1)c1ccccn1` (centres undefined), the “% Inhibition” value is reported as -9% and the Z score came to 1.12.

For `Cc1ccc(NC(=O)Cn2nc3c(N4CCCCC4)nc4ccccc4n3c2=O)cc1`, the “% Inhibition” value was -1% and the Z score is listed as 0.09.

As for `O=C1CN(S(=O)(=O)CCc2ccccc2)CCN1c1ccccn1`, the “% Inhibition” value is -4% and the Z score was determined as 0.57.

In the case of `CCC(=O)Nc1ccc2c(c1)C(N1CCC(C)CC1)=Nc1ccccc1O2`, the “% Inhibition” value is -2% and the Z score was 0.38.

As to `Cc1ccc(-c2cc(C(F)(F)F)n3nc(COc4ccccc4)c(-c4ccccc4)c3n2)cc1`, the “% Inhibition” value is listed as -17% and the Z score was 2.64.

`COCC(=O)N1CCc2nc(NC(=O)C3CCC3)sc2C1`: the “% Inhibition” value was -1% and the Z score is listed as 0.13.

With `CCCCCOCC(=O)N1CC[C@H](CC(N)=O)C1`, the “% Inhibition” value was -4% and the Z score is recorded as 0.5.

As for `CCCN(CC#N)C(=O)c1cc(S(=O)(=O)C(C)C)ccc1F`, the “% Inhibition” value is given as -11% and the Z score is given as 1.2.

As to `Cc1ccc2cc(-c3noc(CCC(=O)N4CCC(C)CC4)n3)c(O)nc2c1`, the “% Inhibition” value was -5% and the Z score was 0.87.

Regarding `COc1ccc(S(=O)(=O)N2CCOCC2)cc1NC(=O)[C@H]1CCOC1`, the “% Inhibition” value is reported as -1% and the Z score stood at 0.13.

Consider `O=C(O)C[C@@H]1CCN(C(=O)c2ccc(F)cc2)C[C@@H]1CC1=NCCc2ccccc21`, for which the “% Inhibition” value is recorded as -3% and the Z score was 0.45.

On to `O=C(Cc1ccc(O)cc1Cl)N1CCOCC12CCC2`, for which the “% Inhibition” value was -9% and the Z score was found to be 1.19.

Regarding `Cc1n[nH]c(C2CN(C(C)C(=O)N3CCc4ccccc43)CCO2)n1` (centres undefined), the “% Inhibition” value was -3% and the Z score stood at 0.44.

On to `Cc1nc(-c2cn(C(C)C)c3ncccc23)sc1C(=O)Nc1ccc2c(c1)OCCO2`, for which the “% Inhibition” value came out at 8% and the Z score is given as -1.4.

As for `COc1ccc(CCn2nnnc2C2(N3CCOCC3)CCCC2)cc1OC`, the “% Inhibition” value turned out to be 1% and the Z score is reported as -0.22.

Consider `Cc1ccc(S(=O)(=O)N2CC[C@H](Oc3ccncn3)C2)s1`, for which the “% Inhibition” value is -15% and the Z score is recorded as 2.29.
